According to the supplement of paper PMC8728848:
The list shows a part of the results.

How the values were obtained:
Experiment in all cases: glycan array binding signal (z-score within array); higher = stronger binding
Conditions in all cases: glycan notation: IUPAC condensed, linker removed
Fuc(a1-2)Gal = target: Fuc(a1-2)Gal
Outline: (§1)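 From the Consortium for Functional Glycomics database, 3228 arrays were curated, keeping only those whose protein sequence was available. Binding is given as a within-array Z-score averaged across arrays sharing a protein sequence and across linkers. Negative Z-scores can be read as non-binding.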

Fuc(a1-2)Gal(b1-3)GalNAc = target: Fuc(a1-2)Gal(b1-3)GalNAc
Outline: as §1

[1] = target: Fuc(a1-2)Gal(b1-3)GalNAc(a1-3)[Fuc(a1-2)]Gal(b1-4)Glc
Outline: as §1

[2] = target: Fuc(a1-2)Gal(b1-3)GalNAc(a1-3)[Fuc(a1-2)]Gal(b1-4)GlcNAc
Outline: as §1

[3] = target: Fuc(a1-2)Gal(b1-3)GalNAc(b1-3)Gal
Outline: as §1

[4] = target: Fuc(a1-2)Gal(b1-3)GalNAc(b1-3)Gal(a1-4)Gal(b1-4)Glc
Outline: as §1

[5] = target: Fuc(a1-2)Gal(b1-3)GalNAc(b1-4)[Neu5Ac(a2-3)]Gal(b1-4)Glc
Outline: as §1

Fuc(a1-2)Gal(b1-3)GlcNAc = target: Fuc(a1-2)Gal(b1-3)GlcNAc
Outline: as §1

[6] = target: Fuc(a1-2)Gal(b1-3)GlcNAc(b1-2)Man(a1-3)[Fuc(a1-2)Gal(b1-3)GlcNAc(b1-2)Man(a1-6)]Man(b1-4)GlcNAc(b1-4)GlcNAc
Outline: as §1

[7] = target: Fuc(a1-2)Gal(b1-3)GlcNAc(b1-2)Man(a1-3)[Fuc(a1-2)Gal(b1-3)GlcNAc(b1-2)Man(a1-6)]Man(b1-4)GlcNAc(b1-4)[Fuc(a1-6)]GlcNAc
Outline: as §1

[8] = target: Fuc(a1-2)Gal(b1-3)GlcNAc(b1-3)Gal(b1-4)Glc
Outline: as §1

[9] = target: Fuc(a1-2)Gal(b1-3)GlcNAc(b1-3)GalNAc
Outline: as §1

[10] = target: Fuc(a1-2)Gal(b1-3)GlcNAc(b1-3)[Fuc(a1-2)Gal(b1-3)GlcNAc(b1-6)]GalNAc
Outline: as §1

[11] = target: Fuc(a1-2)Gal(b1-3)GlcNAc(b1-3)[Gal(b1-4)GlcNAc(b1-6)]Gal(b1-4)Glc
Outline: as §1

[12] = target: Fuc(a1-2)Gal(b1-3)GlcNAc(b1-3)[Neu5Ac(a2-6)Gal(b1-4)GlcNAc(b1-6)]Gal(b1-4)Glc
Outline: as §1

[13] = target: Fuc(a1-2)Gal(b1-3)GlcNAc6S
Outline: as §1

[14] = target: Fuc(a1-2)Gal(b1-3)[Fuc(a1-4)]GlcNAc
Outline: as §1

[15] = target: Fuc(a1-2)Gal(b1-3)[Fuc(a1-4)]GlcNAc(b1-2)Man(a1-3)[Fuc(a1-2)Gal(b1-3)[Fuc(a1-4)]GlcNAc(b1-2)Man(a1-3)]Man(b1-4)GlcNAc(b1-4)GlcNAc
Outline: as §1

[16] = target: Fuc(a1-2)Gal(b1-3)[Fuc(a1-4)]GlcNAc(b1-2)Man(a1-3)[Fuc(a1-2)Gal(b1-3)[Fuc(a1-4)]GlcNAc(b1-2)Man(a1-6)]Man(b1-4)GlcNAc(b1-4)[Fuc(a1-6)]GlcNAc(b1-4)[Fuc(a1-6)]GlcNAc
Outline: as §1

[17] = target: Fuc(a1-2)Gal(b1-3)[Fuc(a1-4)]GlcNAc(b1-3)[Fuc(a1-3)[Gal(b1-4)]GlcNAc(b1-6)]Gal(b1-4)Glc
Outline: as §1

[18] = target: Fuc(a1-2)Gal(b1-3)[Fuc(a1-4)]GlcNAc(b1-3)[Gal(b1-4)GlcNAc(b1-6)]Gal(b1-4)Glc
Outline: as §1

Fuc(a1-2)Gal(b1-4)Glc = target: Fuc(a1-2)Gal(b1-4)Glc
Outline: as §1

Fuc(a1-2)Gal(b1-4)Glc6S = target: Fuc(a1-2)Gal(b1-4)Glc6S
Outline: as §1

Fuc(a1-2)Gal(b1-4)GlcNAc = target: Fuc(a1-2)Gal(b1-4)GlcNAc
Outline: as §1

[19] = target: Fuc(a1-2)Gal(b1-4)GlcNAc(b1-2)Man
Outline: as §1

[20] = target: Fuc(a1-2)Gal(b1-4)GlcNAc(b1-2)Man(a1-3)[Fuc(a1-2)Gal(b1-4)GlcNAc(b1-2)Man(a1-6)]Man(b1-4)GlcNAc(b1-4)GlcNAc
Outline: as §1

[21] = target: Fuc(a1-2)Gal(b1-4)GlcNAc(b1-2)Man(a1-3)[Fuc(a1-2)Gal(b1-4)GlcNAc(b1-2)Man(a1-6)]Man(b1-4)GlcNAc(b1-4)[Fuc(a1-6)]GlcNAc
Outline: as §1

[22] = target: Fuc(a1-2)Gal(b1-4)GlcNAc(b1-2)[Fuc(a1-2)Gal(b1-4)GlcNAc(b1-4)]Man(a1-3)[Fuc(a1-2)Gal(b1-4)GlcNAc(b1-2)Man(a1-6)]Man(b1-4)GlcNAc(b1-4)GlcNAc
Outline: as §1

[23] = target: Fuc(a1-2)Gal(b1-4)GlcNAc(b1-3)Gal(b1-4)GlcNAc
Outline: as §1

[24] = target: Fuc(a1-2)Gal(b1-4)GlcNAc(b1-3)Gal(b1-4)GlcNAc(b1-2)Man(a1-3)[Fuc(a1-2)Gal(b1-4)GlcNAc(b1-3)Gal(b1-4)GlcNAc(b1-2)Man(a1-6)]Man(b1-4)GlcNAc(b1-4)GlcNAc
Outline: as §1

B1: PX15618A-bth-503-24-503 (Bacteroides thetaiotaomicron) (protein)
chain: NKSEDKLSGDDFWAQGNETNAEAFLLSIYNSFRNATMSQRPFLTYSGDMRCAPITAYSTGDKYVAYLANNDMGELRNTYPDDARGGLIMQWDVFYTAIQDANILLAEIDKVPGMDELKRSRFKAEAIFMRSLSYFFIVRAFGDVPYYTNAYNEAPLPRTNMVIVLQNCLADLQPLLDDDPGAEVLPWSYSSYSSKGIRASRGSVIALMMHINLWLVQFDAQNKEQYYRNVVSLGEELERNNGAYSLLDINRSSVIFAGGSDEGLFEIAQNINFNEIFMMNAKFSDNVSYSCLNKSMPLFCYSGDYLMTLFPMYEDDARKELWFDEKIYSTSVSSSAPKEIKKFWNIDTYGNGTITSNSGNQIVFRYAGALLLYAEALAALGTNDTKACELLNRVRNRAHASEINTSGSELMDAIFWERCRELIGEGHYYYDLVRTGKVYNRNYCMNPMTRTNFNVGAWTWPIHRNALKNNTQIGLNLFWE
Fuc(a1-2)Gal
  glycan array binding signal (z-score): -0.399
Fuc(a1-2)Gal(b1-3)GalNAc
  glycan array binding signal (z-score): -0.582
[1]
  glycan array binding signal (z-score): -0.315
[2]
  glycan array binding signal (z-score): -0.737
[3]
  glycan array binding signal (z-score): -0.651
[4]
  glycan array binding signal (z-score): -0.425
[5]
  glycan array binding signal (z-score): -0.169
Fuc(a1-2)Gal(b1-3)GlcNAc
  glycan array binding signal (z-score): -0.618
[6]
  glycan array binding signal (z-score): 1.01
[7]
  glycan array binding signal (z-score): -0.198
[8]
  glycan array binding signal (z-score): -0.23
[9]
  glycan array binding signal (z-score): 0.317
[10]
  glycan array binding signal (z-score): 0.662
[11]
  glycan array binding signal (z-score): -0.299
[12]
  glycan array binding signal (z-score): -0.016
[13]
  glycan array binding signal (z-score): -0.001
[14]
  glycan array binding signal (z-score): -0.295
[15]
  glycan array binding signal (z-score): -0.043
[16]
  glycan array binding signal (z-score): 0.712
[17]
  glycan array binding signal (z-score): -0.326
[18]
  glycan array binding signal (z-score): -0.438
Fuc(a1-2)Gal(b1-4)Glc
  glycan array binding signal (z-score): -0.293
Fuc(a1-2)Gal(b1-4)Glc6S
  glycan array binding signal (z-score): -0.055
Fuc(a1-2)Gal(b1-4)GlcNAc
  glycan array binding signal (z-score): -0.574
[19]
  glycan array binding signal (z-score): -0.103
[20]
  glycan array binding signal (z-score): 2.2
[21]
  glycan array binding signal (z-score): -0.648
[22]
  glycan array binding signal (z-score): -0.077
[23]
  glycan array binding signal (z-score): -0.297
[24]
  glycan array binding signal (z-score): -0.144
